Out of some 200,000 compounds screened, about 4,500 (2.2%) were called active. Inconclusive results, whose numbers are uncertain, are shown with a selection of clear calls. The call rests on the fitted dose curve; in most records, active means well fitted inhibition curve with a large enough effect; inconclusive means small, poorly fitted or top-dose-only effect, or effect the other way; inactive means flat fitted curve, though single readings scatter. Potencies of inconclusive entries are doubtful fits and often do not repeat.
The compounds below were run against Cruzipain (Trypanosoma cruzi) (UniProt P25779) (assay: qHTS Assay for Promiscuous and Specific Inhibitors of Cruzain (without detergent)). Conditions: purified cruzain, Z-FR-AMC fluorescence, no detergent.
Sequence of UniProt P25779 (P25779 whole entry, looked up): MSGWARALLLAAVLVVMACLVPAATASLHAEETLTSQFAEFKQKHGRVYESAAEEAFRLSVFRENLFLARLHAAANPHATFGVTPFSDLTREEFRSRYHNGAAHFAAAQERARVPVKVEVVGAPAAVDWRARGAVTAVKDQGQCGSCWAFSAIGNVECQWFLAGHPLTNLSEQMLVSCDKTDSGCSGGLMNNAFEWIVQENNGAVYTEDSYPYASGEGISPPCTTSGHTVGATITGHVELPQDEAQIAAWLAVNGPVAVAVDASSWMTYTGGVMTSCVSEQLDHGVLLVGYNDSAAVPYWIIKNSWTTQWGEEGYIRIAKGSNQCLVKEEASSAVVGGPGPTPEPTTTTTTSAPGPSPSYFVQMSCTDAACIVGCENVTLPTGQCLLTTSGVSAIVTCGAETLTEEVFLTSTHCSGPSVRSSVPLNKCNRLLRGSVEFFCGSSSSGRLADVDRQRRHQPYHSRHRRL
Method in brief: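 Detergent-free condition (0.00005% Triton X-100) in acetate buffer pH 5.5 with DTT. 1.5 nM enzyme and compound were pre-mixed 15 min, then 2 uM Z-FR-AMC substrate added; reaction progress from fluorescence change between first and third reads (60 s).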
Further: nearly all actives have a fitted effect of over 40% in size.
Potency means the concentration at half of the fitted maximal effect; tags describe the fitted curve by direction and shape.
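Wherever max response, negative = inhibition is given: plate controls were enzyme without inhibitor for no effect and buffer without enzyme for full effect.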

SMILES | Potency | max response, negative = inhibition
Cc1cccc(OCC(=O)Nc2ccc(N3CCN(S(C)(=O)=O)CC3)cc2)c1C | active: 12.6 µM | 
COc1ccc2[nH]cc(C3N4CC5(C)CN3CC(C)(C4)C5=O)c2c1 (stereo not given) | inconclusive: 7.94 µM [activator, single point] | 
COc1ccc(C(=O)N(CC2CCCO2)C(C(=O)NC2CCCC2)c2ccc(Cl)cc2)cc1OC (stereo not given) | inconclusive: 25.1 µM [activator, single point] | 
Cc1nc(NC(=O)c2cccc(Cl)c2)sc1-c1csc(Nc2cccc(Cl)c2)n1 | inconclusive: 25.1 µM [inhibitor, single point] | 
Cc1cc(C)n(-c2nc(SCC(=O)N3CCCC3)c3c4c(sc3n2)CCCC4)n1 | inconclusive: 31.6 µM [activator, single point] | 
O=C(NC(=S)Nc1ccccc1N1CCCC1)c1ccc(-c2cccc([N+](=O)[O-])c2)o1 | active: 5.01 µM | 
Cc1occc1C(=O)NNC(=O)c1ccc(F)cc1 |  | inactive: 0.686%
CCn1c(CSCc2ccc(F)cc2)nnc1SCC(=O)N1CCN(c2ccccc2)CC1 | inconclusive: 20 µM [activator, single point] | 
CCc1cc2c(=O)[nH]c(-c3ccncc3)nc2s1 | inconclusive: 39.8 µM [inhibitor, single point] | 
CCOC(=O)N1CCc2c(sc(NCc3ccc(OC)c(Br)c3)c2C(=O)Nc2cc(OC)ccc2OC)C1 | inconclusive: 1.58 µM [activator, single point] | 
CCOc1ccc(C(NC(=O)/C=C/c2ccco2)c2ccc(OC)c(OC)c2)cc1 (stereo not given) | inconclusive: 25.1 µM [activator, single point] | 
Cc1nn(Cc2ccccc2)c(Cl)c1C(=O)OCC(=O)NC(=O)NC12CC3CC(CC(C3)C1)C2 | inconclusive: 31.6 µM [inhibitor, single point] | 
COc1ccc(CNC(=O)Cc2c(C)c3c(cc(C)c4c(C)coc43)oc2=O)cc1 |  | inactive: 8.69%
CCOc1ccc(NC(=O)C(=O)N/N=C\c2ccc(CNS(=O)(=O)c3ccccc3)o2)cc1 | inconclusive: 31.6 µM [inhibitor, single point] | 
NC1=NC(=O)/C(=C/c2ccccc2OS(=O)(=O)c2ccc3ccccc3c2)S1 | inconclusive: 39.8 µM [inhibitor, single point] | 
CCc1nc(SCC(=O)Nc2cc(C)on2)c2c(C)c(C)sc2n1 |  | inactive: -5.6%
COc1ccc(-c2nc(CCNC(=O)c3cc(OC)c(OC)c(OC)c3)cs2)cc1 | inconclusive: 39.8 µM [activator, single point] | 
CCOC(=O)N1CCN(C(=O)CN2C(=O)CC(C)(C)S(=O)(=O)c3ccccc32)CC1 | inconclusive: 39.8 µM [inhibitor, single point] | 
CCc1ccc(-c2[nH]c3c(c2-c2c(-n4cccc4)n(C)c(=O)n(C)c2=O)c(=O)n(C)c(=O)n3C)cc1 |  | inactive: 22.4%
CC1=C(C(=O)Nc2ccccc2)C(c2ccc(C(=O)O)cc2)n2nc(SCC(=O)c3ccc(C)cc3)nc2N1 (stereo not given) |  | inactive: 4.9%
COc1ccc(-c2c(C)nn3c(N4CCC(C(=O)NCCC(C)C)CC4)cc(C)nc23)cc1OC |  | inactive: 4.69%
Cc1ccc(C)c(NS(=O)(=O)c2ccc3c(c2)Cc2cc(S(=O)(=O)Nc4cc(C)ccc4C)ccc2-3)c1 | active: 7.94 µM | 

SMILES | Potency | max response, negative = inhibition
CC(=C/c1ccccc1)/C=N/Nc1nc(N2CCCCC2)nc(N2CCCCC2)n1 |  | inactive: -9.52%
CC(C)c1ccc(C2c3c(-c4ccccc4O)n[nH]c3C(=O)N2CCc2ccccc2)cc1 (stereo not given) | active: 20 µM | 
C=C(C#N)C(=O)OCC |  | inactive: 6.19%
CC(C)n1c(SCc2ccc(Cl)cc2)nc2c1c(=O)[nH]c(=O)n2C | inconclusive: 31.6 µM [inhibitor, single point] | 
c1ccc(-c2nnc(-c3c[nH]c4ccccc34)nc2-c2ccccc2)cc1 | inconclusive: 31.6 µM [inhibitor, single point] | 
COc1ccc(Cl)cc1N(CC(=O)Nc1ccccc1C(=O)NCc1ccco1)S(C)(=O)=O | inconclusive: 39.8 µM [activator, single point] | 
O=C(COC(=O)[C@@H]1CCCN1S(=O)(=O)c1ccc(Cl)cc1)NC12CC3CC(CC(C3)C1)C2 | inconclusive: 31.6 µM [activator, single point] | 
Cc1c(C(=O)NCCN(C)C)oc2c1-c1nn(Cc3ccccc3Cl)cc1CC2 |  | inactive: 29.3%
Cn1c(SCC(=O)Nc2ccc3c(c2)oc2ccccc23)nnc1-c1ccccc1 | active: 12.6 µM | 
O=C(CSc1ncnc2scc(-c3ccccc3)c12)NCc1ccc2c(c1)OCO2 | inconclusive: 31.6 µM [inhibitor, single point] | 
C=CCn1c(Cc2c(C)[nH]c3ccccc23)nnc1SCC(=O)NCc1ccc(F)cc1 | inconclusive: 39.8 µM [activator, single point] | 
CCCCCCOC(=O)C(C#N)c1nc2ccccc2nc1N1CCCCC1 (stereo not given) | active: 25.1 µM | 
COc1ccc(Br)c2c1-c1nc(NC(=O)c3ccccc3SC)sc1C2 | inconclusive: 3.98 µM [inhibitor, single point] | 
COc1cc(C(=O)Nc2cc(C(F)(F)F)ccc2Cl)cc(OC)c1OC | inconclusive: 39.8 µM [activator, single point] | 
CCOC(=O)c1ccc(NC(=O)C(=O)NCc2ccco2)cc1 |  | inactive: -4.19%
COc1ccccc1C(=O)NCCc1nc2ccccc2[nH]1 | active: 5.01 µM | 
c1ccc2nc(-c3nc4ccccc4o3)ccc2c1 | inconclusive: 31.6 µM [inhibitor, single point] | 
COc1cc(S(=O)(=O)N2CCN=C2c2ccccc2)ccc1F | inconclusive: 1 µM [inhibitor, single point] | 
COc1ccc(NC(=O)Cn2c(=O)n(-c3ccc(Cl)cc3)c(=O)c3c(C)c(C(=O)N(C)C)sc32)cc1Cl |  | inactive: 4.21%
CC(=O)C1=C(C)NC(C)=C(C(C)=O)C1c1cn(-c2ccccc2)nc1-c1cccs1 | inconclusive: 39.8 µM [activator, single point] | 
CSc1nc(C)c2c(n1)N(c1cccc(C)c1)CC2 | inconclusive: 39.8 µM [activator, single point] | 
Cc1ccc(S(=O)(=O)N(CCCO)Cc2cc3c(C)ccc(C)c3[nH]c2=O)cc1 | inconclusive: 31.6 µM [activator, single point] | 

SMILES | Potency | max response, negative = inhibition
CCOC(=O)N1CCc2c(sc3c2c(=O)n(Cc2ccccc2)c(=O)n3Cc2cccc(Cl)c2)C1 | active: 7.94 µM | 
CN(C)c1ccc(CNc2ncc(Br)cc2Br)cc1 |  | inactive: -1.63%
COc1cc(NC(=O)C2=C(C)Nc3nnnn3C2c2ccc(SC)cc2)c(OC)cc1Cl (stereo not given) | inconclusive: 39.8 µM [activator, single point] | 
COc1ccc(N=C2SC(CC(=O)Nc3ccc(OC)cc3OC)C(=O)N2C)cc1 (stereo not given) | inconclusive: 31.6 µM [activator, single point] | 
Cc1cc(C)n2nc3nc(N4CCCCC4)nc(-c4ccco4)c3c2n1 | inconclusive: 31.6 µM [activator, single point] | 
COc1ccc(NC(=O)c2c(NCc3ccc(C)o3)sc3c2CCC(C)C3)cc1 (stereo not given) |  | inactive: -0.333%
CC1CN(C(=O)CCC(=O)NCc2cccs2)c2ccccc2O1 (stereo not given) | inconclusive: 31.6 µM [activator, single point] | 
Cc1ccc(C)c(NC(=O)C(=O)NCC(c2cccnc2)N2CCN(c3ccc(F)cc3)CC2)c1 (stereo not given) | inconclusive: 39.8 µM [activator, single point] | 
COc1ccc(Cn2nnc3c(=O)[nH]c(C4CCCN(C(=O)c5ccccc5Cl)C4)nc32)cc1OC (stereo not given) | inconclusive: 39.8 µM [activator, single point] | 
COc1ncc2nc(CCc3ccccc3)c(=O)n(Cc3cccs3)c2n1 |  | inactive: -0.822%
CCN(C(=O)Cn1nc2c3cc(F)ccc3n(Cc3cccc(C)c3)cc-2c1=O)c1cccc(C)c1 |  | inactive: -3.67%
CCN(CC)CCOC(=O)c1ccc(NC(=O)c2nn(-c3ccc(C)cc3)c(=O)c3c2c2ccccc2n3C)cc1 |  | inactive: 4.27%
Cc1cccc(-c2nc3cc(NC(=O)Cc4ccc(Cl)cc4)ccc3o2)c1 | inconclusive: 6.31 µM [inhibitor, single point] | 
CSc1ccccc1NC(=S)Nc1ccccc1C(F)(F)F |  | inactive: 6.35%
CC1=C(C(N)=O)C(c2cccc(C)c2)n2nc(-c3ccc(Cl)cc3)nc2N1 (stereo not given) |  | inactive: -3.66%
O=C(NCCCN1CCN(c2ccc(F)cc2)CC1)c1cc2c(s1)-c1ccccc1OC2 | inconclusive: 3.98 µM [activator, partial curve] | 
CCSc1nnc(CNC(=O)C23CC4CC(CC(C4)C2)C3)n1C1CCCCC1 | inconclusive: 25.1 µM [activator, single point] | 
COc1cc(C(=S)N2CCOCC2)cc(OC)c1OC(=O)Cc1ccc(F)cc1 | inconclusive: 25.1 µM [activator, single point] | 
Cn1ccc2cc(S(=O)(=O)N3CCCN(C(=O)Nc4ccc(Br)cc4)CC3)ccc21 | inconclusive: 39.8 µM [inhibitor, single point] | 
Cc1ccc(S(=O)(=O)N2CCC(C(=O)Nc3nnc(-c4ccc(F)cc4)s3)CC2)cc1 | inconclusive: 39.8 µM [inhibitor, single point] | 
CC(C)(C)c1ccc(C(=O)c2c[nH]c(C(=O)NCc3cccs3)c2)cc1 | inconclusive: 31.6 µM [inhibitor, single point] | 

— PubChem BioAssay AID1476 (National Center for Advancing Translational Sciences (NCATS), 2009)
